# Where a name gives a salt, the structure may show the parent alone. Some of the results follow. Most values come without repeats; read them as rough.
# System: HCT116-GFP
# Experiment: HCT116-GFP viability (GFP intensity) relative to untreated control, monoculture; higher = less cancer cell killing
# Settings: culture: HCT116-GFP monoculture; 10 µM; 72 h
# 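Note: viability estimated indirectly by image-based GFP quantification with live-cell imaging of the constitutively GFP-expressing human colorectal cancer line, no immune cells added.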
row,SMILES,HCT116-GFP viability
1,CN[C@H](CC(C)C)C(=O)N[C@H]1C(=O)N[C@@H](CC(N)=O)C(=O)N[C@H]2C(=O)N[C@H]3C(=O)N[C@H](C(=O)N[C@H](C(=O)O)c4cc(O)cc(O)c4-c4cc3ccc4O)[C@H](O)c3ccc(c(Cl)c3)Oc3cc2cc(c3O[C@@H]2O[C@H](CO)[C@@H](O)[C@H](O)[C@H]2O[C@H]2C[C@](C)(N)[C@H](O)[C@H](C)O2)Oc2ccc(cc2Cl)[C@H]1O [Vancomycin hydrochloride],95.4%
2,NS(=O)(=O)c1cc2c(cc1Cl)N=CNS2(=O)=O [Chlorothiazide],91.8%
3,CCOc1ccc2c(c1)C(C)=CC(C)(C)N2 [Ethoxyquin],72.5%
4,CCOC(=O)[C@H](CCc1ccccc1)N[C@@H](C)C(=O)N1[C@H](C(=O)O)C[C@@H]2CCC[C@@H]21 [Ramipril],90.8%
5,NC(=O)c1ncn([C@@H]2O[C@H](CO)[C@@H](O)[C@H]2O)n1 [Ribavirin],74.7%
6,CC(C)COCC(CN(Cc1ccccc1)c1ccccc1)N1CCCC1 (stereo not given) [Bepridil hydrochloride],53.8%
7,NS(=O)(=O)c1cc(C(=O)O)c(NCc2ccco2)cc1Cl [Furosemide],86.4%
8,COc1cc(C(=O)NS(=O)(=O)c2ccccc2C)ccc1Cc1cn(C)c2ccc(NC(=O)OC3CCCC3)cc12 [Zafirlukast],88.8%
9,Cc1cc(C2CCCCC2)n(O)c(=O)c1 [Ciclopirox ethanolamine],11.7%
10,Cc1cccc(C)c1NC(=O)C1CCCCN1C (stereo not given) [Mepivacaine hydrochloride],76.7%
11,Cc1ncc([N+](=O)[O-])n1CC(O)CCl (stereo not given) [Ornidazole],91%
12,CN1C(C(=O)Nc2ccccn2)=C(O)c2sccc2S1(=O)=O [Tenoxicam],99.3%
13,C[C@]12CC[C@H]3C(=CCc4cc(O)ccc43)[C@@H]1CCC2=O [Equilin],104%
14,C=C[C@H]1CN2CC[C@H]1C[C@@H]2[C@@H](O)c1ccnc2ccc(OC)cc12 [Quinidine hydrochloride monohydrate],109%
15,CS(=O)(=O)c1ccc(C2=C(c3ccccc3)C(=O)OC2)cc1 [Rofecoxib],85.6%
16,Cn1c(=O)c2[nH]cnc2n(C)c1=O [Aminophylline],91.5%
17,Cc1[nH]c(=O)c(C#N)cc1-c1ccncc1 [Milrinone],107%
18,CN(C)CCC=C1c2ccccc2CCc2ccccc21 [Amitryptiline hydrochloride],72.5%
19,Cc1ccnc2c1NC(=O)c1cccnc1N2C1CC1 [Nevirapine],75.5%
20,CCN(CC)CCOC(=O)C(c1ccccc1)C1CCCCC1 (stereo not given) [Drofenine hydrochloride],100%
21,COCC1=C(C(=O)OC(C)OC(=O)OC(C)C)N2C(=O)[C@@H](NC(=O)/C(=N\OC)c3csc(N)n3)[C@H]2SC1 (stereo not given in full) [Cefpodoxime proxetil],86.9%
22,COc1cc(Cc2cnc(N)nc2N)cc(OC)c1OC [Trimethoprim],89.3%
23,O=C(CCCN1CCC(O)(c2ccc(Br)cc2)CC1)c1ccc(F)cc1 [Bromperidol],67.8%
24,CC(=O)c1ccc2c(c1)N(CCCN1CCC(CCO)CC1)c1ccccc1S2 [Piperacetazine],86%
25,CO[C@@]1(NC(=O)Cc2cccs2)C(=O)N2C(C(=O)O)=C(COC(N)=O)CS[C@@H]21 [Cefoxitin sodium salt],103%

row,SMILES,HCT116-GFP viability
1,CCCCC(CC)CN1CN(CC(CC)CCCC)CC(C)(N)C1 (stereo not given) [Hexetidine],93.9%
2,COc1cc2c(cc1OC)C(=O)C(CC1CCN(Cc3ccccc3)CC1)C2 (stereo not given) [Donepezil hydrochloride],102%
3,COc1cc(C(=O)NC2CCCNC2)cc(OC)c1OC (stereo not given) [Troxipide],88.4%
4,C[C@]12CC[C@@H]3c4ccc(O)cc4CC[C@H]3[C@@H]1CCC2=O [Estrone],98.9%
5,CC(=O)N(CC(C)C(=O)O)c1c(I)cc(I)c(N)c1I (stereo not given) [Iocetamic acid],107%
6,CN(C)[C@@H]1C(O)=C(C(N)=O)C(=O)[C@@]2(O)C(O)=C3C(=O)c4c(O)ccc(Cl)c4[C@@](C)(O)[C@H]3C[C@@H]12 [Chlortetracycline hydrochloride],92.5%
7,Cc1cccc(CN2CCN(C(c3ccccc3)c3ccc(Cl)cc3)CC2)c1 (stereo not given) [Meclozine dihydrochloride],96.4%
8,COc1cnc(NS(=O)(=O)c2ccc(N)cc2)nc1 [Sulfameter],111%
9,O=C(O)CCC(=O)Nc1ccc(S(=O)(=O)Nc2nccs2)cc1 [Succinylsulfathiazole],86.2%
10,COc1ccccc1O [Guaiacol],101%
11,CCCCC(C)(O)C/C=C/[C@H]1[C@H](O)CC(=O)[C@@H]1CCCCCCC(=O)OC (mixture of isomers) [Misoprostol],91.8%
12,CNCCC(Oc1ccccc1OC)c1ccccc1 (stereo not given) [Nisoxetine hydrochloride],101%
13,CCOC(=O)C1=C[C@]2(CC)CCCN3CCc4c(n1c1ccccc41)[C@@H]32 [Vinpocetine],95.9%
14,COc1ccc(-c2cc(=O)c3c(O)cc(O[C@@H]4O[C@H](CO[C@@H]5O[C@@H](C)[C@H](O)[C@@H](O)[C@H]5O)[C@@H](O)[C@H](O)[C@H]4O)cc3o2)cc1O [Diosmin],91.9%
15,CCCCCCCN(CC)CCCC(O)c1ccc(NS(C)(=O)=O)cc1 (stereo not given) [Ibutilide fumarate],105%
16,c1ccc2[nH]c(-c3cscn3)nc2c1 [Tiabendazole],95%
17,CC1CS(=O)(=O)CCN1/N=C/c1ccc([N+](=O)[O-])o1 (stereo not given) [Nifurtimox],74.6%
18,CN1CC2c3ccccc3Oc3ccc(Cl)cc3C2C1 (stereo not given) [Asenapine maleate],92.8%
19,O=C(O)Cc1sc(-c2ccccc2)nc1-c1ccc(Cl)cc1 [Fentiazac],93.3%
20,CC(=O)OCC(=O)[C@@]12N=C(C)O[C@@H]1C[C@H]1[C@@H]3CCC4=CC(=O)C=C[C@]4(C)[C@H]3[C@@H](O)C[C@@]12C [Deflazacort],116%
21,OCc1cc(C(O)CNCCCCCCOCCCCc2ccccc2)ccc1O (stereo not given) [Salmeterol],85.4%
22,CC(=O)Nc1ccc(CC(=O)O)cc1 [Actarit],91.1%
23,Cc1nc2n(c(=O)c1CCN1CCC(c3noc4cc(F)ccc34)CC1)CCCC2 [Risperidone],73.5%
24,CNCCC(Oc1ccc(C(F)(F)F)cc1)c1ccccc1 (stereo not given) [Fluoxetine hydrochloride],83%
25,CCN1CC(CCN2CCOCC2)C(c2ccccc2)(c2ccccc2)C1=O (stereo not given) [Doxapram hydrochloride],79.7%

row,SMILES,HCT116-GFP viability
1,O=C(O)c1cc(-c2ccc(F)cc2F)ccc1O [Diflunisal],102%
2,CCCCNC(=O)NS(=O)(=O)c1ccc(C)cc1 [Tolbutamide],92.9%
3,CC(=O)[C@H]1CC[C@H]2[C@@H]3C[C@H](C)C4=CC(=O)CC[C@]4(C)[C@H]3[C@@H](O)C[C@]12C [Medrysone],105%
4,CCOC(=O)OC(C)OC1=C(C(=O)Nc2ccccn2)N(C)S(=O)(=O)c2ccccc21 (stereo not given) [Ampiroxicam],15.4%
5,O=S(=O)(O)CCS [Mesna],79.1%
6,CCn1cc(C(=O)O)c(=O)c2cnc(N3CCCC3)nc21 [Piromidic acid],101%
7,CC(C)(C)NC[C@H](O)c1ccc(O)c(CO)c1 [Levalbuterol hydrochloride],112%
8,Nc1nc(=O)c2c([nH]1)NC[C@@H](CNc1ccc(C(=O)N[C@@H](CCC(=O)O)C(=O)O)cc1)N2C=O [Folinic acid calcium salt],139%
9,COc1ccc2cc([C@@H](C)C(=O)O)ccc2c1 [(R) -Naproxen sodium salt],91%
10,CC1(C)NC(=O)N(c2ccc([N+](=O)[O-])c(C(F)(F)F)c2)C1=O [Nilutamide],96.9%
11,COC(=O)[C@@H]1[C@H]2C[C@H]3c4[nH]c5ccccc5c4CCN3C[C@@H]2CC[C@@H]1O [Yohimbine hydrochloride],95.1%
12,CCCCC(CC)CNC(=N)NC(=N)NCCCCCCNC(=N)NC(=N)NCC(CC)CCCC (stereo not given) [Alexidine dihydrochloride],0.00913%
13,CCCCOc1cc(C(=O)NCCN(CC)CC)c2ccccc2n1 [Dibucaine],94.5%
14,O=C1CCc2cc(OCCCCc3nnnn3C3CCCCC3)ccc2N1 [Cilostazol],74.1%
15,CCS(=O)(=O)CCn1c([N+](=O)[O-])cnc1C [Tinidazole],108%
16,CCC1=C(C)CN(C(=O)NCCc2ccc(S(=O)(=O)NC(=O)N[C@H]3CC[C@H](C)CC3)cc2)C1=O [Glimepiride],97.4%
17,CN(C)CCOC(=O)COc1ccc(Cl)cc1 [Meclofenoxate hydrochloride],101%
18,Brc1c(NC2=NCCN2)ccc2nccnc12 [Brimonidine L-Tartrate],85.8%
19,CCCc1nc(C(C)(C)O)c(C(=O)O)n1Cc1ccc(-c2ccccc2-c2nnn[nH]2)cc1 [Olmesartan],90.7%
20,"OC(CCN1CCCCC1)(c1ccccc1)C1CCCCC1 (stereo not given) [Trihexyphenidyl-D,L Hydrochloride]",98.5%
21,N=C(N)N/N=C/c1c(Cl)cccc1Cl [Guanabenz acetate],91.3%
22,CN(CCOc1ccc(CC2SC(=O)NC2=O)cc1)c1ccccn1 (stereo not given) [Rosiglitazone Hydrochloride],80.7%
23,CCC(=O)OCC(=O)[C@@]1(OC(=O)CC)[C@H](C)C[C@H]2[C@H]3[C@H]([C@@H](O)C[C@@]21C)[C@@]1(C)C=CC(=O)C=C1C[C@H]3Cl [Alclometasone dipropionate],108%
24,Nc1cc(-c2ccncc2)c[nH]c1=O [Amrinone],98.1%
25,COc1ccc(C[C@@H]2c3cc(OC)c(OC)cc3CC[N@+]2(C)CCC(=O)OCCCCCOC(=O)CC[N@@+]2(C)CCc3cc(OC)c(OC)cc3[C@H]2Cc2ccc(OC)c(OC)c2)cc1OC [Cisatracurium besylate],83.2%

# Reference: the supplement of paper PMC9938546
